{
  "source": "the supplement of paper PMC8728848",
  "binders": {"B1": {"name": "HMGB1 (Homo sapiens), P09429 (protein)", "chain": "MGKGDPKKPRGKMSSYAFFVQTCREEHKKKHPDASVNFSEFSKKCSERWKTMSAKEKGKFEDMAKADKARYEREMKTYIPPKGETKKKFKDPNAPKRPPSAFFLFCSEYRPKIKGEHPGLSIGDVAKKLGEMWNNTAADDKQPYEKKAAKLKEKYEKDIAAYRAKGKPDAAKKGVVKAEKSKKKKEEEEDEEDEEDEEEEEDEEDEDEEEDDDDE"}},
  "experiment_in_all_cases": "glycan array binding signal (z-score within array); higher = stronger binding",
  "conditions_in_all_cases": "glycan notation: IUPAC condensed, linker removed",
  "key": {"[1]": {"target": "Neu5Ac(a2-8)Neu5Ac(a2-8)Neu5Ac(a2-8)Neu5Ac(a2-3)[GalNAc(b1-4)]Gal(b1-4)Glc", "summary_of_the_method": "(§1)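 Glycan array binding is given as a within-array Z-score, which can be read as non-binding when negative. The arrays, 3228 of them, came from the Consortium for Functional Glycomics database and were retained only where the protein sequence was available. Z-scores were averaged across arrays of the same protein sequence at different concentrations or buffers and across linkers.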"}, "[2]": {"target": "Neu5Ac9Ac(a2-6)Gal(b1-4)GlcNAc", "summary_of_the_method": "as §1"}, "[3]": {"target": "Neu5Gc(a2-3)Gal(b1-3)GlcNAc", "summary_of_the_method": "as §1"}, "[4]": {"target": "Neu5Gc(a2-3)Gal(b1-3)[Fuc(a1-4)]GlcNAc", "summary_of_the_method": "as §1"}, "Neu5Gc(a2-3)Gal(b1-4)Glc": {"target": "Neu5Gc(a2-3)Gal(b1-4)Glc", "summary_of_the_method": "as §1"}, "[5]": {"target": "Neu5Gc(a2-3)Gal(b1-4)GlcNAc", "summary_of_the_method": "as §1"}, "[6]": {"target": "Neu5Gc(a2-3)Gal(b1-4)[Fuc(a1-4)]GlcNAc", "summary_of_the_method": "as §1"}, "[7]": {"target": "Neu5Gc(a2-6)Gal(b1-4)GlcNAc", "summary_of_the_method": "as §1"}, "Neu5Gc(a2-6)GalNAc": {"target": "Neu5Gc(a2-6)GalNAc", "summary_of_the_method": "as §1"}},
  "note": "The list shows a part of the results.",
  "data": [
    {"binder": "B1", "values": [
      {"measurement": "glycan array binding signal (z-score)", "setting": "[1]", "value": 0.238},
      {"measurement": "glycan array binding signal (z-score)", "setting": "[2]", "value": -0.073},
      {"measurement": "glycan array binding signal (z-score)", "setting": "[3]", "value": -0.245},
      {"measurement": "glycan array binding signal (z-score)", "setting": "[4]", "value": 1.03},
      {"measurement": "glycan array binding signal (z-score)", "setting": "Neu5Gc(a2-3)Gal(b1-4)Glc", "value": 0.675},
      {"measurement": "glycan array binding signal (z-score)", "setting": "[5]", "value": -0.256},
      {"measurement": "glycan array binding signal (z-score)", "setting": "[6]", "value": -0.179},
      {"measurement": "glycan array binding signal (z-score)", "setting": "[7]", "value": 0.015},
      {"measurement": "glycan array binding signal (z-score)", "setting": "Neu5Gc(a2-6)GalNAc", "value": -0.195}
    ]}
  ]
}
